Assay results taken from the RNAGym collection of RNA variant scans (doi:10.1073/pnas.2313332121).
This sample is rich in variants without activity.

B1: TPR 5TU (parent)
chain: GGAUCUUCUCGAUCUAACAAAAAAGACAAAUCUGCCACAAAGCUUGAGAGCAUCUUCGGAUGCAGAGGCGGCAGCCUUCGGUGGCGCGAUAGCGCCAACGUUCUCAACUAUGACACGCAAAACGCGUGCUCCGUUGAAUGGAGUUUAUCAUG

Variants of: B1
Experiment: polymerase ribozyme fitness, log enrichment relative to wild type (log ratio); higher = more active; in vitro selection for triplet polymerase activity
Procedure, shortened: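 PCR was used to build mutant libraries for each subunit of a heterodimeric triplet polymerase ribozyme, which were then transcribed. A single in vitro selection round, in triplicate, used a frozen incubation at −7 °C and recovered extended constructs by gel excision, streptavidin beads and RT-PCR. Fitness is the logarithm of genotype enrichment relative to wild-type enrichment, averaged over replicates with inverse-variance weights. The logarithm is base 2, and after Illumina sequencing only genotypes with ≥10 input reads and ≥1 read per output were kept.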

| Variant | polymerase ribozyme fitness (log ratio) |
| --- | --- |
| C5U C38U C63A U77A C95U U127G G136U U144C | ≤ -4.2 |
| U6G A20U C93A C116A U135A | -3.29 |
| U6C A20C A28C A37U G42U G71A C85U C99G A106G C131G | ≤ -4.2 |
| U6A C14G A24U G62U C85U G92C A107G A113U | ≤ -4.2 |
| U6A A30U U45A G84A G124C | ≤ -4.2 |
| U6A C27U U45A C54G U78C G84A U148C | ≤ -4.2 |
| C5U A16G C93A C125U A137U | ≤ -4.2 |
| C5U A41U G81A G84C C85A C96U G126A | ≤ -4.2 |
| U6C G46A A49U G62U G84C A97G U109G | ≤ -4.2 |
| U6C A22C A66U C75G A89U A91C G128U U130C | ≤ -4.2 |
| C5U A16G C27G A64U C116U | ≤ -4.2 |
| C5U U7A C32U A37C C93G G133A U134A | ≤ -4.2 |
| U6C A37C C93U | -3.12 |
| U6C C87U | -1.52 |
| U6C A16U G42C G70C G92C | ≤ -4.2 |
| C5U A22C A40U G58A G92A U139A G152U | ≤ -4.2 |
| C5U G34C G68A G83A C103G G143A | ≤ -4.2 |
| U6A U9G A26U C38G C85U A97U U135C | ≤ -4.2 |
| C5U C54U U82A C95G A150U | -1.62 |
| U6A C8G A28U A49C A66G C93U A98G | ≤ -4.2 |
| C5U A40G G84A A97G | -3.39 |

| Variant | polymerase ribozyme fitness (log ratio) |
| --- | --- |
| C5U G67U C76U G80C C93U C103G | ≤ -4.2 |
| C5U G59C A97U U101G A138U | ≤ -4.2 |
| U6C A37C C87U G88A G136U U144G | ≤ -4.2 |
| U6C C43G C75A A91C C125A G128U | ≤ -4.2 |
| C5U A28C U56A U77C G94A | ≤ -4.2 |
| C5U A41U G68A G94A C99G U102G A115G | ≤ -4.2 |
| C5U A24C C54U G58C C87G A89C A91U U111C | ≤ -4.2 |
| C5U A23U U56A C85U U102G C118U U148G | ≤ -4.2 |
| U6A A12U A41C C51G C87A G92A G100A U148A | ≤ -4.2 |
| U6C A17U U33C C51G C57G G83U C95G A98G U127G | ≤ -4.2 |
| C5U A16G G42U G86A A89G A137G | ≤ -4.2 |
| U6A A19G U77C G83C | ≤ -4.2 |
| U6C C8A U111G G143C | ≤ -4.2 |
| U6G A22G U139A | ≤ -4.2 |
| U6A C27U A41C U55A G62C G71C C85A G143U | ≤ -4.2 |
| U6G A19G A24G G58A U90G C96G U102G G136C | ≤ -4.2 |
| U6C A19U G25C G50A C54G U56A C69A C85A C105G | ≤ -4.2 |
| U6C A29C C57G C75U C93A C114G A120G G141U | ≤ -4.2 |
| C5U A40C U53A C87G A89U | ≤ -4.2 |
| U6C U55G C132A A138G | ≤ -4.2 |
| C5U A28U C38A U55G U56A A73U | ≤ -4.2 |

| Variant | polymerase ribozyme fitness (log ratio) |
| --- | --- |
| U6C U7G A49G A66C G74A C96G | ≤ -4.2 |
| U6A C8G A16C A47U C95A A97G A98C U104A A107C | ≤ -4.2 |
| U6A A19U A29C G42C G92U A113G | ≤ -4.2 |
| U6A U31G G59A U61A C63A G92C G141A | ≤ -4.2 |
| C5U C87A A91C A97C A98C | ≤ -4.2 |
| U6C A16G A24U C96A C118U | -3.92 |
| U6C U45A C54A | ≤ -4.2 |
| C5U G80C G84C C114U U134A U139A | ≤ -4.2 |
| C5U C8U G58A A73G C114U A120G | -3.02 |
| C5G U45A U61A C75G A150U | ≤ -4.2 |
| U6G A17G A26G A91U U145G U148C A150C | ≤ -4.2 |
| C5U A21U U44G A52C U55A G84U | ≤ -4.2 |
| U6C A12U A49C C85U G86C A97C U139C A142U A150U | ≤ -4.2 |
| U6A A28G | ≤ -4.2 |
| U6A C38G G42C G86U C93U U127A | ≤ -4.2 |
| U6C C54U C85A G86A | ≤ -4.2 |
| U6C U9C A19C A26U C43G G80C C87U C93A U102G G112U | ≤ -4.2 |
| U6A C14U A91C A150U | ≤ -4.2 |
| U6G A20U G58A G86A C116G U144A | ≤ -4.2 |
| U6C C8U U15G | -2.42 |
| U6G A19U A20C A110C | ≤ -4.2 |

| Variant | polymerase ribozyme fitness (log ratio) |
| --- | --- |
| C5U U15G A39C G83A U90G C114A U135C | ≤ -4.2 |
| U6A U9C C10G G58C C85A U146A | ≤ -4.2 |
| U6C A47C G81C C87G C96U | ≤ -4.2 |
| C5U A23G A47U G48U A91C G126U | ≤ -4.2 |
| U6A A16U A39C G67C G92U A115G | ≤ -4.2 |
| C5U C8G A23U U45A G84C | ≤ -4.2 |
| U6A A16U A24C A113C | ≤ -4.2 |
| C5G U53G C57A G80C A91U U144C | ≤ -4.2 |
| C5U A121G G133U G141U | ≤ -4.2 |
| U6C A24C G86U U104G C125U | ≤ -4.2 |
| U6C A47G G59C G92U C99A C118G | -3.32 |
| C5U C8U A23C C85U C103A C116U | ≤ -4.2 |
| U6A U44G A98U A107U | -1.58 |
| C5U A41U U45A G67U C75G U102G U111G A122C | ≤ -4.2 |
| U6C C75U C87G G117A | ≤ -4.2 |
| U6A U13A C14U C32G C51G C69U C93U G124C | ≤ -4.2 |
| C5U C8G G83U C123U | ≤ -4.2 |
| U6A C32G C35U U53A G94C C116A C149A | ≤ -4.2 |
| U6A C8A A12G C43U A64C G86C C87A | ≤ -4.2 |
| C5U A19C A39C U56C G59A C79A | ≤ -4.2 |
| U6A A23C A28U C38U C69A C76A A142U G143U | ≤ -4.2 |
